Data reported in PubChem BioAssay AID1240 (Sanford-Burnham Center for Chemical Genomics, 2008).
Screen size: about 50,000 compounds; about 800 (1.6%) showed an effect of 50% or more. The list shows a part of the results.

Molecular target: Bcl-2-like protein 10 (Homo sapiens) (UniProt Q9HD36)
Assay: Phenotype converters, Bcl-B/TR3 peptide binding displacement, primary biochemical FP (AID 1240);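 further: 0% = Bcl-B with tracer peptide and DMSO and 100% = tracer peptide lacking Bcl-B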
Details: GST-Bcl-B / FITC-TR3 peptide fluorescence polarization; stronger effect = higher value; compound at 3.75 mg/L

Sequence of UniProt Q9HD36 (Q9HD36 whole entry, looked up): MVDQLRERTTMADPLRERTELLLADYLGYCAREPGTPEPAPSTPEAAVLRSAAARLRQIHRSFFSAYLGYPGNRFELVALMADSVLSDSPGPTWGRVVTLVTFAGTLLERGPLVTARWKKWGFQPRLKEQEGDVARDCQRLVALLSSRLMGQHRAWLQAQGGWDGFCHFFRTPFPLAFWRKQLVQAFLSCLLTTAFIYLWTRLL

Structure (SMILES)	displacement [%]
O=C(/C=C/c1ccccc1)NC(=S)Nc1ccc([N+](=O)[O-])cc1	14.5
O=C1C(=O)N(Cc2ccccc2)C(c2ccccc2F)/C1=C(/O)c1ccccc1 (stereo not given)	14.4
COc1ccc(C(NC(C)=O)c2c(OC(C)=O)ccc3ccccc23)cc1 (stereo not given)	-12
O=C(Nc1ccc(O)c(-c2nc3cc(Cl)ccc3o2)c1)c1cccnc1	-17.8
Cc1ccc(CN2CCN(N=Cc3ccc(C)s3)CC2)c(C)c1	-15.2
O=C(COc1ccccc1)N1CCN(C(=O)c2cccc(F)c2)CC1	10.9
CCc1ccc(NC(=O)c2ccc(Cl)cc2)cc1	11.9
Cc1ccc(OCC(=O)N/N=C\c2ccccc2C)cc1	6.3
CCCN1C(=O)/C(=C\c2nc3ccccc3c(=O)n2C)c2cc(Br)ccc21	1.7
O=C(Cc1ccc(F)cc1)Nc1ccc(Cl)cc1Cl	13.2
CCOC(=O)c1ccc(NC(=O)CN(c2ccc(C)cc2)S(=O)(=O)c2ccc(SC)cc2)cc1	-7.8
C=CCNC(=O)c1cc(OC)c(OC)c(OC)c1	-8.1
N/C(=N\c1nc2ccccc2o1)NC(=O)c1ccc(F)cc1	1.4
COc1ccc(NC(=O)C(=O)NCCN2CCN(C(=O)c3ccc(C)cc3)CC2)cc1	10
CCN1C(=O)/C(=C\c2cc(Br)c(OCc3ccc(F)cc3)c(OC)c2)SC1=S	1.7
Cc1nc(=S)c2cnn(-c3ccccc3)c2[nH]1	-6.5
CC(C)N(C(=O)c1ccc(C(=O)NCc2ccc(S(N)(=O)=O)cc2)cc1)C(C)C	-2.3
O=[N+]([O-])c1cccc(Cl)c1N1CCOCC1	3.9
O=C1CC(c2ccccc2)CC2=C1C(c1cc([N+](=O)[O-])ccc1Cl)Nc1ccccc1N2 (stereo not given)	9.5
O=C(CSc1nnnn1-c1ccccc1)NC1CCCC1	-7.6
O=C(NCc1ccc2c(c1)OCO2)c1cccc(F)c1	-14.6
COC(=O)c1ccccc1-c1ccc(/C=c2\sc3nc4ccccc4n3c2=O)o1	24.5
COc1ccc(NC(=O)c2ccc(CN3CCOCC3)cc2)cc1OC	5.9
Cc1nnc(Nc2cccc(Nc3nnc(C)c4ccccc34)c2)c2ccccc12	4.6
Cc1ccccc1N1C(=O)C(O)=C(C(=O)/C=C/c2ccccc2)C1c1ccc(Br)cc1 (stereo not given)	7.6
O=C(N/N=C/c1cccc(O)c1)C(=O)N1CCCCCC1	-6.1
O=P1(C(Nc2ccc(O)cc2)c2ccc(Br)cc2)OCCCO1 (stereo not given)	11.9
COc1ccc(NC(=O)c2cccc(Oc3ccccc3)c2)cc1OC	7
Cc1nc2ccccc2c2c1C(=O)N(c1cccc(O)c1)C2=O	-9.5
O=S(=O)(Nc1cccnc1)c1cc(Cl)c(Cl)cc1Cl	-17.1
